Experimental data published in PubChem BioAssay AID489012 (National Center for Advancing Translational Sciences (NCATS), 2010).
Inconclusive means that the source gave no clear call. Such entries were picked first, then a sample of the others. Potencies of inconclusive entries are doubtful fits and often do not repeat. The source made the active and inactive calls. The call rests on the fitted dose curve; in most records, active means well fitted activation curve with a large enough effect; inconclusive means small, poorly fitted or top-dose-only effect; inactive means no such curve, though single readings can be large or run the other way.
Further: nearly all actives have a fitted effect of over 65% in size.
Potency means the concentration at half of the fitted maximal effect; tags describe the fitted curve by direction and shape.
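Wherever activation is given: cAMP rise lowers the TR-FRET signal in lysed cells with PDE4 inhibitor present.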

What follows are compounds tested against Relaxin receptor 1 (Homo sapiens) (UniProt Q9HBX9) (assay: qHTS Assay for Agonists of the Relaxin Receptor RXFP1: RXFP1 Hit Validation). Conditions: HEK293T-RXFP1 cAMP TR-FRET, 30 min; series mostly up to 115 µM.
Chain of UniProt Q9HBX9 (Q9HBX9 whole entry, looked up): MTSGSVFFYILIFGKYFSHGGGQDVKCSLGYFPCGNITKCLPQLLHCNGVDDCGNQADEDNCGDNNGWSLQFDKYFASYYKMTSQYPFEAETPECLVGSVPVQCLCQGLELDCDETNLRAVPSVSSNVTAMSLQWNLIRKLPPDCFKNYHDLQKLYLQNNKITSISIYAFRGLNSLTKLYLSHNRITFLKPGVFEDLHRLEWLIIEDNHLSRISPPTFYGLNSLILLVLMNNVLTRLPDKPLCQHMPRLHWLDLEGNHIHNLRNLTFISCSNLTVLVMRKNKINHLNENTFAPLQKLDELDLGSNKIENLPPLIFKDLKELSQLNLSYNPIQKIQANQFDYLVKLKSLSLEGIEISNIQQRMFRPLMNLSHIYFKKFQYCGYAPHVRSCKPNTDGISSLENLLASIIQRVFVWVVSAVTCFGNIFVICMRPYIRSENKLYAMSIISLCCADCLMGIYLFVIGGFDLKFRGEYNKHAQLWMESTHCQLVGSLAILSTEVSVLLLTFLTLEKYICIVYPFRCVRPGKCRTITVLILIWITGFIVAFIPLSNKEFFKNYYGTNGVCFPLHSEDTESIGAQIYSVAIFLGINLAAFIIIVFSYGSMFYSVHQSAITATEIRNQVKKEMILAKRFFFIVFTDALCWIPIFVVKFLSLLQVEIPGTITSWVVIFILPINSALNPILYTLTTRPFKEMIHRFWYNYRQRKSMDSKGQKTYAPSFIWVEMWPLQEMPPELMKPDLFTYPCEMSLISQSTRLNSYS
Excerpt: NIH Chemical Genomics Center [NCGC] NIH Molecular Libraries Probe Production Centers Network [MLPCN] MLPCN Grant: R03 MH085705-01A1 Assay Submitter (PI): Alexander Agoulnik NCGC Assay Overview: The relaxin hormone is involved in the variety of biological functions in normal tissues and diseases. The role of relaxin is well-established in female reproduction and parturition, mammary gland and endometrial development, maintenance of myometrial quiescence during pregnancy. Relaxin signaling through its G protein-coupled receptor (GPCR) RXFP1 results in ECM remodeling through regulation of collagen deposition, cell invasiveness, proliferation and overall tissue homeostasis. […] Recombinant human relaxin (rhRlx) is currently being tested in clinical trials as a protective agent in congestive heart failure, in treating severe preeclampsia, and as an anti-fibrotic agent in systemic sclerosis. Upon relaxin binding RXFP1 activation leads to the activation of adenylate cyclase (AC) via Gs. cAMP will activate PKA, which phosphorylates many signaling proteins. Thus, detection of cAMP increase is an easy and reliable indication of relaxin receptor activation. To screen for agonists of the relaxin receptor, a HEK293T cell line stably transfected with RXFP1 was used. RXFP1 activation was assayed by changes in cAMP levels as detected with a time-resolved fluorescence energy transfer (TR-FRET) cAMP detection kit.
NCGC Assay Protocol Summary: This is a cell-based assay for cAMP second messenger response to screen for agonists of the RXFP1 receptor. The assay was conducted in the presence of a PDE4 inhibitor (Ro 20174). The cells were lysed and the cAMP levels were measured with a TR-FRET cAMP kit. Presence of cAMP in the cell lysate disrupts binding between the cryptate-labeled anti-cAMP and d2-labeled cAMP pair, leading to a decrease in the TR-FRET signal. Data were normalized to the controls for basal activity (buffer only) and 100% activity (29 nM porcine relaxin). The EC50 values were determined from concentration-response data modeled with the standard Hill equation 1536-well assay protocol for the HEK293 RXFP1 cAMP assay: (1) Add 3 ul HEK293 RXFP1 cell culture. 2000 cells/well in DMEM/F12, 10% FBS, 1x Pen/Strep (dispensed offline with MultiDrop Combi). (2) Incubate 16-24 hr at 37C, 5% CO2. (3) Add 1 ul 400uM Ro20174 in DPBS, 0.05% BSA, 0.005% Tween 20. (3) Add 23 nl compounds in DMSO solution. Final concentration was 0.5 - 58 uM. (4) Incubate 30 min at 37C, 5% CO2. (5) Add 1 ul cAMP-d2 in lysis buffer (HTRF cAMP HiRange kit, CisBio). (6) Add 1 ul anti-cAMP antibody-cryptate in lysis buffer (HTRF cAMP HiRange kit, CisBio). (7) Incubate 30 min at room temperature. […] Keywords: relaxin, RXFP1, RXFP2, G-protein coupled receptor, cAMP, agonist, high throughput screening, MLSMR, MLSCN, NIH Roadmap, qHTS and NCGC
`O=C(CSc1ccc2nnc(-c3cccnc3)n2n1)Nc1cccc(F)c1` was tested, and the Potency was inconclusive: 34.6 µM [activator, partial curve].
In the case of `COC(=O)c1sc(N2C(=O)C(O)=C(C(=O)c3ccc(C)o3)C2c2cccs2)nc1C` (stereo not given), the Potency is reported as inconclusive: 10.9 µM [activator, partial curve].
With `CCN(CC)S(=O)(=O)c1ccc2c(c1)N(CC(=O)NCc1ccccn1)C(=O)CO2` the Potency was inconclusive: 34.6 µM [activator, partial curve].
With `Cn1c(=O)c2sccc2n2c(CCCC(=O)N3CCN(c4ccccn4)CC3)nnc12` the Potency was inconclusive: 34.6 µM [activator, partial curve].
`Cc1nc2scc(C)n2c(=O)c1S(=O)(=O)N1CCN(c2ccccn2)CC1` was tested, and the Potency was inconclusive: 30.9 µM [activator, partial curve].
`O=C(CCc1nnc2ccc(N3CCC4(CC3)OCCO4)nn12)NCc1ccccc1Cl` was tested, and the Potency was inconclusive: 45.9 µM [activator, partial curve].
`CC(C(=O)Nc1cccnc1)n1cc([N+](=O)[O-])cn1` (stereo not given) was tested, and the Potency was “inactive”.
With `Nc1c(Cl)cc(-c2[nH]c3cc(C(=O)NCCO)ccc3c(=O)c2O)cc1Cl` the Potency was active: 34.6 µM.
`C[C@H](Cc1ccccc1)Nc1ncnc2c1ncn2[C@@H]1O[C@H](CO)[C@@H](O)[C@H]1O` was tested, and the Potency was inconclusive: 5.49 µM [activator, full curve, poor fit].
`CCS(=O)(=O)Nc1cccc(-c2ccc3nnc(-c4cccnc4)n3n2)c1` was tested, and the Potency was inconclusive: 34.6 µM [activator, partial curve].
In the case of `O=C1CN(c2nc3ccccc3n3cnnc23)CC(=O)N1CCc1ccccc1`, the Potency is reported as “inactive”.
For `CC(C)C(=O)Nc1ccc(Nc2ccccc2)cc1`, the Potency was “inactive”.
With `Cc1cccn2c(=O)c3cc(C(=O)NC4CCCC4)c(=N)n(CCCN4CCOCC4)c3nc12` the Potency was “inactive”.
With `O=C(Nc1ccccc1C(=O)Nc1ccc(F)cc1)c1ccco1` the Potency was “inactive”.
With `O=C(Nc1ccccc1C(=O)N1CCN(c2ccccc2)CC1)c1ccco1` the Potency was “inactive”.
For `N#Cc1c(N)nc(SCC(=O)C23CC4CC(CC(C4)C2)C3)c(C#N)c1-c1ccc(Cl)cc1`, the Potency was active: 9.74 µM.
`Cc1cc(C)n2nc(C(=O)Nc3ccc4c(c3)OCCO4)nc2n1` was tested, and the Potency was inconclusive: 6.9 µM [activator, full curve].
In the case of `O=C1c2cccnc2C(=O)N1Cc1ccc(F)cc1S(=O)(=O)NCc1ccco1`, the Potency is reported as inconclusive: 34.6 µM [activator, partial curve].
For `Cc1cc2nc3ccc(=[N+](C)C)cc-3sc2cc1N`, the Potency was “inactive”.
In the case of `CCOC(=O)CNC(=O)CSc1nc2c(C)cccc2cc1CC`, the Potency is reported as inconclusive: 19.4 µM [activator, partial curve].
`Cn1c(N)c(C(=O)CSc2nnc(NC3CCCCC3)s2)c(=O)n(C)c1=O` was tested, and the Potency was “inactive”.
In the case of `COC(=O)Cn1cnc2c(C#N)c3n(c2c1=O)CCCCC3`, the Potency is reported as active: 13.8 µM.
With `Cc1cccc2cc(C#N)c(SCC(=O)NCc3cccs3)nc12` the Potency was active: 17.3 µM.
For `CCOC(=O)c1sc(NC(=O)CCc2ccc(OC)cc2)nc1C`, the Potency was active: 15.4 µM.
With `C=C[C@@]1(C)CC(=O)[C@]2(O)[C@@]3(C)[C@@H](O)CCC(C)(C)[C@@H]3[C@H](O)[C@H](OC(C)=O)[C@@]2(C)O1` the Potency was active: 0.0388 µM.
For `O=C(O)c1cc(-c2ccc(Br)s2)nc2ccccc12`, the Potency was inconclusive: 3.08 µM [activator, full curve].
`Cc1ccccc1OCC(=O)Nc1sc(C(=O)Nc2cccc(C)c2C)c(C)c1C#N` was tested, and the Potency was active: 6.15 µM.
`O=C(O)C1Cc2ccccc2CN1C(=O)CSc1nnc2ccccn12` (stereo not given) was tested, and the Potency was inconclusive: 34.6 µM [activator, partial curve].
With `CCN(CC)CCCN1C=C2C(=O)C(C)(OC(=O)C3CCCC3)C(=O)C=C2C=C1c1ccsc1` (stereo not given) the Potency was “inactive”.
In the case of `CC(=O)C1C(c2ccccc2)c2c(noc2C)CC1(C)O` (stereo not given), the Potency is reported as “inactive”.
For `Cc1ccc(C(=O)Nc2ccccc2C(N)=O)o1`, the Potency was “inactive”.
In the case of `CN(C)S(=O)(=O)c1ccc(C(=O)OCC(=O)Nc2cccnc2Cl)cc1`, the Potency is reported as inconclusive: 19.4 µM [activator, partial curve].
For `CCC(Sc1ccc2nnc(-c3cccnc3)n2n1)C(=O)O` (stereo not given), the Potency was inconclusive: 19.4 µM [activator, partial curve].
For `CCS(=O)(=O)c1nc(S(=O)(=O)c2ccc(C)cc2)c(N2CC(C)OC(C)C2)s1` (stereo not given), the Potency was inconclusive: 37.5 µM [activator, partial curve].
`CN1CCN(C(=O)CCc2nnc3ccc(N4CCC5(CC4)OCCO5)nn23)CC1` was tested, and the Potency was “inactive”.
In the case of `COC(=O)Cn1cnc2c(C#N)c3n(c2c1=O)CCCC3`, the Potency is reported as active: 24.5 µM.
`CCCn1c(SCC(=O)Nc2ccc(NC(C)=O)cc2)nc2c1c(=O)n(C)c(=O)n2C` was tested, and the Potency was inconclusive: 43.6 µM [activator, partial curve].
With `O=S(=O)(c1cccc(-c2cn3cccnc3n2)c1)N1CCOCC1` the Potency was active: 27.5 µM.
With `CC(C)OCCCn1c(=O)c2ccccc2n2c(CCC(=O)NCc3ccccn3)nnc12` the Potency was inconclusive: 27.5 µM [activator, partial curve].
In the case of `Cc1cccn2c(=O)c(/C=C3\SC(=S)NC3=O)c(NCCCN3CCOCC3)nc12`, the Potency is reported as active: 7.74 µM.
